Experimental data published in the supplement of paper PMC8728848.
The other results are listed elsewhere or left out.

Legend:
Assay in all cases: glycan array binding signal (z-score within array); higher = stronger binding
Details in all cases: glycan notation: IUPAC condensed, linker removed
GlcNAc(b1-3)GalNAc = molecular target: GlcNAc(b1-3)GalNAc
Procedure, shortened: (§1)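 The binding signal is a Z-score computed within each array and averaged over linkers. Arrays of the same protein sequence at different concentrations or buffers were also averaged together. Data originate from 3228 arrays in the Consortium for Functional Glycomics database, kept only where the protein sequence was available.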

[1] = molecular target: GlcNAc(b1-3)[GlcNAc(b1-4)][GlcNAc(b1-6)]GlcNAc
Procedure, shortened: as §1

[2] = molecular target: GlcNAc(b1-3)[GlcNAc(b1-6)]Gal(b1-4)GlcNAc
Procedure, shortened: as §1

[3] = molecular target: GlcNAc(b1-3)[GlcNAc(b1-6)]GlcNAc
Procedure, shortened: as §1

[4] = molecular target: GlcNAc(b1-4)Gal(b1-4)GlcNAc
Procedure, shortened: as §1

[5] = molecular target: GlcNAc(b1-4)GlcNAc(b1-4)GlcNAc
Procedure, shortened: as §1

[6] = molecular target: GlcNAc(b1-4)GlcNAc(b1-4)GlcNAc(b1-4)GlcNAc(b1-4)GlcNAc
Procedure, shortened: as §1

[7] = molecular target: GlcNAc(b1-4)GlcNAc(b1-4)GlcNAc(b1-4)GlcNAc(b1-4)GlcNAc(b1-4)GlcNAc
Procedure, shortened: as §1

[8] = molecular target: GlcNAc(b1-4)[GlcNAc(b1-6)]GalNAc
Procedure, shortened: as §1

[9] = molecular target: GlcNAc(b1-6)Gal(b1-4)GlcNAc
Procedure, shortened: as §1

GlcNAc(b1-6)GalNAc = molecular target: GlcNAc(b1-6)GalNAc
Procedure, shortened: as §1

Kdn(a2-3)Gal(b1-3)GlcNAc = molecular target: Kdn(a2-3)Gal(b1-3)GlcNAc
Procedure, shortened: as §1

Kdn(a2-3)Gal(b1-4)GlcNAc = molecular target: Kdn(a2-3)Gal(b1-4)GlcNAc
Procedure, shortened: as §1

[10] = molecular target: Man(a1-2)Man(a1-2)Man(a1-3)Man
Procedure, shortened: as §1

[11] = molecular target: Man(a1-2)Man(a1-2)Man(a1-3)[Man(a1-2)Man(a1-3)[Man(a1-2)Man(a1-6)]Man(a1-6)]Man(b1-4)GlcNAc(b1-4)GlcNAc
Procedure, shortened: as §1

[12] = molecular target: Man(a1-2)Man(a1-2)Man(a1-3)[Man(a1-2)Man(a1-6)[Man(a1-3)]Man(a1-6)]Man(b1-4)GlcNAc(b1-4)GlcNAc
Procedure, shortened: as §1

[13] = molecular target: Man(a1-2)Man(a1-2)Man(a1-6)[Man(a1-3)]Man
Procedure, shortened: as §1

Man(a1-2)Man(a1-3)Man = molecular target: Man(a1-2)Man(a1-3)Man
Procedure, shortened: as §1

[14] = molecular target: Man(a1-2)Man(a1-3)[Man(a1-2)Man(a1-6)]Man
Procedure, shortened: as §1

[15] = molecular target: Man(a1-2)Man(a1-3)[Man(a1-3)[Man(a1-6)]Man(a1-6)]Man(b1-4)GlcNAc(b1-4)GlcNAc
Procedure, shortened: as §1

[16] = molecular target: Man(a1-2)Man(a1-3)[Man(a1-6)]Man(a1-6)[Man(a1-2)Man(a1-3)]Man(b1-4)GlcNAc(b1-4)GlcNAc
Procedure, shortened: as §1

Man(a1-3)[Man(a1-6)]Man = molecular target: Man(a1-3)[Man(a1-6)]Man
Procedure, shortened: as §1

[17] = molecular target: Man(a1-3)[Man(a1-6)]Man(a1-6)[Man(a1-3)]Man(b1-4)GlcNAc(b1-4)GlcNAc
Procedure, shortened: as §1

[18] = molecular target: Man(a1-3)[Man(a1-6)]Man(b1-4)GlcNAc(b1-4)GlcNAc
Procedure, shortened: as §1

Man(b1-4)GlcNAc = molecular target: Man(b1-4)GlcNAc
Procedure, shortened: as §1

Neu5Ac(a2-3)Gal = molecular target: Neu5Ac(a2-3)Gal
Procedure, shortened: as §1

[19] = molecular target: Neu5Ac(a2-3)Gal(b1-3)GalNAc
Procedure, shortened: as §1

[20] = molecular target: Neu5Ac(a2-3)Gal(b1-3)GalNAc(b1-3)Gal(a1-4)Gal(b1-4)Glc
Procedure, shortened: as §1

[21] = molecular target: Neu5Ac(a2-3)Gal(b1-3)GalNAc(b1-4)[Neu5Ac(a2-3)]Gal(b1-4)Glc
Procedure, shortened: as §1

[22] = molecular target: Neu5Ac(a2-3)Gal(b1-3)GalNAc6S
Procedure, shortened: as §1

[23] = molecular target: Neu5Ac(a2-3)Gal(b1-3)GlcNAc
Procedure, shortened: as §1

[24] = molecular target: Neu5Ac(a2-3)Gal(b1-3)GlcNAc(b1-3)Gal(b1-4)GlcNAc
Procedure, shortened: as §1

[25] = molecular target: Neu5Ac(a2-3)Gal(b1-3)GlcNAc6S
Procedure, shortened: as §1

[26] = molecular target: Neu5Ac(a2-3)Gal(b1-3)[Fuc(a1-4)]GlcNAc
Procedure, shortened: as §1

[27] = molecular target: Neu5Ac(a2-3)Gal(b1-3)[Fuc(a1-4)]GlcNAc(b1-3)Gal(b1-4)[Fuc(a1-3)]GlcNAc
Procedure, shortened: as §1

[28] = molecular target: Neu5Ac(a2-3)Gal(b1-3)[Neu5Ac(a2-3)Gal(b1-4)]GlcNAc
Procedure, shortened: as §1

[29] = molecular target: Neu5Ac(a2-3)Gal(b1-3)[Neu5Ac(a2-6)]GalNAc
Procedure, shortened: as §1

Neu5Ac(a2-3)Gal(b1-4)Glc = molecular target: Neu5Ac(a2-3)Gal(b1-4)Glc
Procedure, shortened: as §1

B1: 7WC (Trifolium repens) (protein)
chain: MGTITSYAVVFDAGSTGSRVHVYHFDQNLDLLHIGKDVEFYNKIQPGLSAYADNPEQAAKSLIPLLEQAENVVPEDFHSKTPIRLGATAGLRLLDGDASERILQAVRDMLNNKSTFNVQPDAVSIIDGTQEGSYLWVTINYVLGNLGKRFTNTVGVIDLGGGSVQMAYAVSKKTARNAPKVTDGEDPYIKKIVLKGKPYDLYVHSYLHFGREASRAEILKVTHGSASPCILAGFDGIYTYSGEEFKASAPTSGANFDKCKKIIQKALKLDYPCPYQNCTFGGIWNGGGGSGQKKLFAASSFFYLPQDVGMVDPNKSNLKLRPVDLENKAKIVCTLNVEDVKSAYPLLEKFNIVPYACMDLIYQYELLVDGFGLDPLQEITAGEKIEYQEALVDAAWALGNAVEAVLLLPKFERLMYFVVEHHHHHH
GlcNAc(b1-3)GalNAc
  glycan array binding signal (z-score): -0.337
[1]
  glycan array binding signal (z-score): 2.53
[2]
  glycan array binding signal (z-score): 0.568
[3]
  glycan array binding signal (z-score): 0.685
[4]
  glycan array binding signal (z-score): -0.21
[5]
  glycan array binding signal (z-score): 0.1
[6]
  glycan array binding signal (z-score): -0.291
[7]
  glycan array binding signal (z-score): -0.165
[8]
  glycan array binding signal (z-score): 0.548
[9]
  glycan array binding signal (z-score): 0.085
GlcNAc(b1-6)GalNAc
  glycan array binding signal (z-score): 0.422
Kdn(a2-3)Gal(b1-3)GlcNAc
  glycan array binding signal (z-score): 0.012
Kdn(a2-3)Gal(b1-4)GlcNAc
  glycan array binding signal (z-score): -0.402
[10]
  glycan array binding signal (z-score): -0.024
[11]
  glycan array binding signal (z-score): 0.41
[12]
  glycan array binding signal (z-score): 1.07
[13]
  glycan array binding signal (z-score): 9.79
Man(a1-2)Man(a1-3)Man
  glycan array binding signal (z-score): -0.261
[14]
  glycan array binding signal (z-score): 1.78
[15]
  glycan array binding signal (z-score): -0.237
[16]
  glycan array binding signal (z-score): 0.312
Man(a1-3)[Man(a1-6)]Man
  glycan array binding signal (z-score): -0.475
[17]
  glycan array binding signal (z-score): -0.469
[18]
  glycan array binding signal (z-score): -0.388
Man(b1-4)GlcNAc
  glycan array binding signal (z-score): -0.155
Neu5Ac(a2-3)Gal
  glycan array binding signal (z-score): -0.522
[19]
  glycan array binding signal (z-score): -0.314
[20]
  glycan array binding signal (z-score): -0.388
[21]
  glycan array binding signal (z-score): -0.537
[22]
  glycan array binding signal (z-score): -0.543
[23]
  glycan array binding signal (z-score): -0.438
[24]
  glycan array binding signal (z-score): -0.525
[25]
  glycan array binding signal (z-score): -0.354
[26]
  glycan array binding signal (z-score): -0.496
[27]
  glycan array binding signal (z-score): 4.17
[28]
  glycan array binding signal (z-score): -0.542
[29]
  glycan array binding signal (z-score): -0.537
Neu5Ac(a2-3)Gal(b1-4)Glc
  glycan array binding signal (z-score): -0.107
